The whole screen tested about 45,000 compounds, of which about 65 (0.1%) were called active. The call rests on the fitted dose curve; in most records, active means well fitted activation curve with a large enough effect; inconclusive means small, poorly fitted or top-dose-only effect; inactive means no such curve, though single readings can be large or run the other way. The list shows a part of the results.
Biological target: Galactocerebrosidase (Homo sapiens) (UniProt P54803)
Test: A Novel Cell-Based Assay to Identify Small Molecules for B -Galactocerebrosidase; further: 0% is about no effect; nearly all actives have a fitted effect of over 65% in size
Conditions: 145M-Twi-hGALC-G270D cells (Twitcher mouse brain line with human GALC G270D), HMU-beta-Gal fluorescence, 48 h; series mostly up to 57.5 µM; activation: at the top concentration
How it was run: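 Fluorescence readout: HMU-β-gal cleavage by mutant GALC (0.1 mM final, citrate/phosphate pH 5.2 with 1 mg/mL taurocholate), stopped with carbonate/bicarbonate plus Triton X-100. Cells: murine Twitcher 145M-Twi expressing human G270D GALC; qHTS for activators.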

Chain of UniProt P54803 (P54803 whole entry, looked up): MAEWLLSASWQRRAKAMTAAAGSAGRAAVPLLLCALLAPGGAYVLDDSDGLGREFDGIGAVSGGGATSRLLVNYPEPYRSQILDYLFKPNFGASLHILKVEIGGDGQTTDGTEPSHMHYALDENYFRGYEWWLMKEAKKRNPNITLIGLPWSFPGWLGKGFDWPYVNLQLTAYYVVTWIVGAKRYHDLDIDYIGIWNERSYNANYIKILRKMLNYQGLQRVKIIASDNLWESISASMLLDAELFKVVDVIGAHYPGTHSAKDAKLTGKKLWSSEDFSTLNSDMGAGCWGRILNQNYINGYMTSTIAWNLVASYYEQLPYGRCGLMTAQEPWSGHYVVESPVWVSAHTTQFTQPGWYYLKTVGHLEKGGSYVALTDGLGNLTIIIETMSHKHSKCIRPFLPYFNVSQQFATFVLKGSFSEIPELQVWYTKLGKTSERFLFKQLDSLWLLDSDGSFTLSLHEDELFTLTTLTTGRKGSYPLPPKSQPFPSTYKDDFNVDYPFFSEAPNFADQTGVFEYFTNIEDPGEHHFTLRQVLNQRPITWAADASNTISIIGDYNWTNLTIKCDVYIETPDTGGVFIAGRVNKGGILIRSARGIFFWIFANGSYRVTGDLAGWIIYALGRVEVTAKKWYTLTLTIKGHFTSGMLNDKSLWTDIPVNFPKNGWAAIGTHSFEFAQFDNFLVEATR

activation, inactive:
COc1ccc(OC)c(NC(=O)Cn2c(=O)cc(-c3ccccc3)c3c(C)nn(C)c32)c1 -6.59%
CCOc1ccc(N(Cc2ccccc2)C(=O)c2nc(S(C)(=O)=O)ncc2Cl)cc1 -8.45%
CCc1ccc(S(=O)(=O)c2nnn3c2nc(Nc2ccc(NC(C)=O)cc2)c2sccc23)cc1 -15.2%
Cc1cccc(N2CCN(C(=O)CS(=O)(=O)Cc3nc(-c4ccccc4C)oc3C)CC2C)c1 (stereo not drawn) -2.2%
CCOC(=O)C1CCCN(Cc2cn3c(-c4cccc(Br)c4)nnc3s2)C1 (stereo not drawn) -1.57%
Cc1nc(-c2ccc(C)c(N3CCN(C(=O)Nc4cccc(Cl)c4C)CC3)c2)no1 -11.4%
Cc1ccc(-n2c(Cc3ccccc3)nnc2SCc2nc(-c3cccs3)no2)cc1C -1.37%
O=C(Nc1ccc(Cl)cc1)C(NS(=O)(=O)c1cccs1)c1ccccc1 (stereo not drawn) 0.516%
Cc1cccc(OCC(=O)Nc2nnc(S(=O)(=O)N3CCc4ccccc43)s2)c1 -14.5%
O=C(O)CCC(=O)OC[C@@H](NC(=O)C(Cl)Cl)[C@H](O)c1ccc([N+](=O)[O-])cc1 -11.6%
Cc1ccc2oc(=O)c3cnn(CC(=O)NCc4ccccc4Cl)c3c2c1 -21.9%
CCc1ccc(-n2c(=O)c3c4c(sc3n(Cc3ccc(F)cc3)c2=O)CCCC4)cc1 2.71%
COc1ccc(CNC(=O)c2cccc(N3CCCS3(=O)=O)c2)cc1 -17.4%
O=C1[C@@H]2CSC(c3ccc(F)cc3)N2C(=O)N1c1ccc(Cl)cc1 (stereo partly drawn) -16.4%
Nc1ncc(S(=O)(=O)NCc2cccc(Cl)c2)cn1 -21.3%
O=C(Cn1c(=O)n2nc(-c3ccccc3)nc2c2ccccc21)Nc1ccccc1C(F)(F)F -8.4%
COc1ccc2cc(CCC(C)=O)ccc2c1 -15.5%
COc1ccc(S(=O)(=O)N(Cc2nc(-c3ccc(C)cc3)no2)C2CCCCC2)cc1 -11%
Cc1ccc(C)n1-c1nnc(N2CCC(C(=O)NCc3ccccc3Cl)CC2)s1 -7.95%
Cc1ccc(-c2nc(CCNC(=O)C(=O)Nc3ccc(C)c(C)c3)cs2)cc1 -7.39%
CCOC(=O)CNC(=O)Nc1cc(C(=O)NCc2cccc(F)c2)ccc1N1CCCC1 -12.2%
CS(=O)(=O)c1ccc2nc(NC(=O)CS(=O)(=O)c3ccc(Cl)cc3)sc2c1 -3.6%
Cc1ccc(-c2nc3scc(CCNC(=O)c4cccc(Br)c4)n3n2)cc1 -2.31%
COc1ccccc1NC(=O)C1CCCN(c2nnc(C)c3c(C)n(-c4ccccc4)nc23)C1 (stereo not drawn) -12.8%
COc1ccc(NC(=O)c2ccc3nc(CCc4ccccc4)oc3c2)cc1 -3.43%
CCCCC12CN3CC(C)(CN(C1)C3c1cc(Br)ccc1O)C2=O (stereo not drawn) -31.7%
O=C(Cn1c(=O)n(Cc2ccco2)c(=O)c2cccnc21)Nc1ccccc1F -22%
CCCN(CCC)C(=O)Cn1c(=O)n(-c2cccc(C(F)(F)F)c2)c(=O)c2c(C)c(C)sc21 -17.3%
CCOc1cc(C(=O)Nc2ccc(-c3nc4cc(C)ccc4o3)cc2)cc(OCC)c1OCC -15.2%
O=C(Nc1ccc2nc(SCC(=O)N3CCCC3)sc2c1)c1ccccc1 -5.39%
CCOc1ccccc1NC(=O)CSc1nc2ccccc2c2nc(CCn3cncc3C)nn12 -25.2%
Cc1ccc(NC2=C(c3ccc(C(F)(F)F)cc3)C(=O)c3ccccc32)cc1F 2.89%
O=C(NCC(c1cccnc1)N1CCc2ccccc21)c1ccccc1Br (stereo not drawn) -10.5%
CCCCCC(C)N (stereo not drawn) -13.7%
COc1ccc(CNC(=O)Cn2c(SCC(=O)N(C)c3ccccc3)nc3ccccc32)cc1 -16.5%
CCCCn1c(=O)n(-c2ccc(Br)cc2F)c(=O)c2c3c(sc21)CN(C(C)=O)CC3 3.52%
COc1cc(C(=O)Nc2ccc3nn(-c4ccc(F)cc4)nc3c2)cc(OC)c1OC -10.8%
CCOC(=O)c1noc2nc(C)n(CC(=O)Nc3cc(Cl)ccc3OC)c(=O)c12 -27.5%
Cc1ccc(OCC(=O)Nc2c(C(=O)c3ccccc3)oc3ccccc23)cc1C -8.4%
CC1=C(C(=O)OCC2CCCCC2)C(c2ccc(F)cc2F)CC(=O)N1 (stereo not drawn) -7.15%
COc1ccccc1CNC(=O)C(=O)NCC(c1cccs1)S(=O)(=O)c1ccc(F)cc1 (stereo not drawn) -7.57%
Oc1c(C(c2ccccc2)N2CCN(Cc3ccccc3)CC2)sc2nc(-c3ccco3)nn12 (stereo not drawn) -26.6%
Cc1ccc(CNC(=O)C2CCN(S(=O)(=O)N3CCC(C)CC3)CC2)cc1 -14.8%
Cc1csc2nc(COC(=O)c3ccc(NC(=O)COc4ccccc4F)cc3)cc(=O)n12 -16.2%
CC(=O)Nc1nnc(SCc2cc(=O)c3cc(C)ccc3[nH]2)s1 -32.7%
CC1=C(C(=O)Nc2ccccc2)C(c2ccccc2)n2nc(-c3ccco3)nc2N1 (stereo not drawn) -15.2%
COc1ccc(NC(=O)Cn2c(SCc3cccc(Cl)c3)nc3ccncc32)c(OC)c1OC -13.5%
NC(=O)NC1N=C([O][Al])NC1=O (stereo not drawn) -9.88%
COc1cc(Cl)c(C)cc1NC(=O)CCc1nc2cccnc2n1-c1ccccc1 -16.3%
CCOc1ccccc1NC(=O)C(C)Sc1cc(-c2ccccc2)nc(C)n1 (stereo not drawn) -12.2%
Cc1ccc(NCc2cccn2-c2nnc(N3CCCCCC3)s2)cc1 -20.3%
CCOc1ccccc1NC(=O)CCn1c(-c2ccc(OC)cc2)cc(C(C)=O)c1C -0.0622%
CCn1cc(C(=O)O)c(=O)c2ccc(C)nc21 -13.5%
COc1ccc(-c2nnc(SCC(=O)Nc3cccc(F)c3)s2)cc1 -9.97%
CCCCNC(=O)C1CCN(S(=O)(=O)c2cc(Br)cc3c2N(C(=O)CC)CC3)CC1 -13.6%
Cn1c(=O)cc(SCC(=O)NCc2ccc(F)cc2)c2ccc(Cl)cc21 -21.8%
Cc1cccc(-c2nc(SCCCOc3ccccc3Cl)n3[nH]c(=O)cc3n2)c1 -25.8%
O=C(Nc1ccc(F)c(Cl)c1)N1CCN(C(=O)c2nsc3ccccc23)CC1 -6.18%
Cc1cc(C)cc(-n2c(SCC(=O)N3CCc4ccccc43)nc3c([nH]c4ccccc43)c2=O)c1 -8.03%
CC(=O)Nc1ccc(Nc2ncnc3c2c(-c2ccccc2)cn3-c2ccccc2)cc1 -17.4%
CCN1c2ccccc2-n2cccc2C12CCN(C(=O)Nc1ccccc1C(F)(F)F)CC2 2.19%
C#CCN(C)Cc1ccccc1 -16.5%
CCOc1ccc(CNC(=O)Cn2c(=O)c3cccn3c3ccc(F)cc32)cc1 -1.56%

Reference: PubChem BioAssay AID1159614 (National Center for Advancing Translational Sciences (NCATS), 2016)
